# According to the supplement of paper PMC8728848:
# This is one part of the list.
# B1: PX14375C-bth-509-28-509 (Bacteroides thetaiotaomicron) (protein)
# chain: RSPQGQFTEDDNPNALVNGKIYNVYTMMRSFDITAGTPAIAIHYLRSEDSEKGSIPSDGSDVAEMYDDFLYTPTNGLLGSYWGKNYAIIYQCNDILDAIAEKETAGQTETEDIINKGEASFFRAYCYFNLVRAFGEVPLVTYKINDASEANIPKTTADKIYEQIDTDLKTAEESLPETWSTEYTGRLTWGAARSLHARTYMMRSDWDNMYKASTDVINKGLYNLKTPYNEIFTDDGENSGGSIFELQCTATAALPQSDVIGSQFCEVQGVRGAGQWDLGWGWHMATQLMADAYETGDPRKNATLLYFRKTDDEPITPENTNEPYGESPISPAMGAYFNKKAYTDPALRKEYTNKGFWVNIRLIRYSDVVLMAAEAANEKNIPGEAVDYLEMVRARARGTNTNILPKITTNDQGELREAIRHERRVELGLEPDRFYDLVRWGIASEVLHAAGKVNYQDKNALLPLPQSEIDKSKGVLVQNPDY
# How the values were obtained:
# Experiment in all cases: glycan array binding signal (z-score within array); higher = stronger binding
# Settings in all cases: glycan notation: IUPAC condensed, linker removed
# [1] = molecular target: Gal(b1-3)GlcNAc(b1-6)[Gal(b1-3)]GalNAc
# In short: (§1)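 Columns mapping to the same glycan were averaged after glycan names were converted to IUPAC-condensed notation. The data come from 3228 arrays in the Consortium for Functional Glycomics database, limited to those with an available protein sequence. Binding is reported as a within-array Z-score averaged across arrays of one protein sequence and across linkers.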
# [2] = molecular target: Gal(b1-3)GlcNAc6S
# In short: as §1
# [3] = molecular target: Gal(b1-3)[Fuc(a1-4)]GlcNAc
# In short: as §1
# [4] = molecular target: Gal(b1-3)[Fuc(a1-4)]GlcNAc(b1-2)Man
# In short: as §1
# [5] = molecular target: Gal(b1-3)[Fuc(a1-4)]GlcNAc(b1-2)Man(a1-3)[Gal(b1-3)[Fuc(a1-4)]GlcNAc(b1-2)Man(a1-6)]Man(b1-4)GlcNAc(b1-4)[Fuc(a1-6)]GlcNAc
# In short: as §1
# [6] = molecular target: Gal(b1-3)[Fuc(a1-4)]GlcNAc(b1-3)Gal(b1-3)[Fuc(a1-4)]GlcNAc
# In short: as §1
# [7] = molecular target: Gal(b1-3)[Fuc(a1-4)]GlcNAc(b1-3)Gal(b1-4)[Fuc(a1-3)]GlcNAc
# In short: as §1
# [8] = molecular target: Gal(b1-3)[Fuc(a1-4)]GlcNAc(b1-6)GalNAc
# In short: as §1
# [9] = molecular target: Gal(b1-3)[GlcNAc(b1-6)]GalNAc
# In short: as §1
# [10] = molecular target: Gal(b1-3)[Neu5Ac(a2-6)]GalNAc
# In short: as §1
# [11] = molecular target: Gal(b1-3)[Neu5Ac(a2-6)]GlcNAc(b1-4)Gal(b1-4)Glc
# In short: as §1
# [12] = molecular target: Gal(b1-3)[Neu5Ac(b2-6)]GalNAc
# In short: as §1
# [13] = molecular target: Gal(b1-4)Gal
# In short: as §1
# [14] = molecular target: Gal(b1-4)GalNAc(a1-3)[Fuc(a1-2)]Gal(b1-4)GlcNAc
# In short: as §1
# [15] = molecular target: Gal(b1-4)GalNAc(b1-3)[Fuc(a1-2)]Gal(b1-4)GlcNAc
# In short: as §1
# [16] = molecular target: Gal(b1-4)Glc
# In short: as §1
# [17] = molecular target: Gal(b1-4)Glc6S
# In short: as §1
# [18] = molecular target: Gal(b1-4)GlcNAc
# In short: as §1
# [19] = molecular target: Gal(b1-4)GlcNAc(a1-6)Gal(b1-4)GlcNAc
# In short: as §1
# [20] = molecular target: Gal(b1-4)GlcNAc(b1-2)Man
# In short: as §1
# [21] = molecular target: Gal(b1-4)GlcNAc(b1-2)Man(a1-3)Man(b1-4)GlcNAc(b1-4)GlcNAc
# In short: as §1
# [22] = molecular target: Gal(b1-4)GlcNAc(b1-2)Man(a1-3)[Gal(b1-4)GlcNAc(b1-2)Man(a1-6)]Man(b1-4)GlcNAc(b1-4)GlcNAc
# In short: as §1
# [23] = molecular target: Gal(b1-4)GlcNAc(b1-2)Man(a1-3)[Gal(b1-4)GlcNAc(b1-2)Man(a1-6)]Man(b1-4)GlcNAc(b1-4)[Fuc(a1-6)]GlcNAc
# In short: as §1
# [24] = molecular target: Gal(b1-4)GlcNAc(b1-2)Man(a1-3)[Gal(b1-4)GlcNAc(b1-2)Man(a1-6)][Gal(b1-4)GlcNAc(b1-4)]Man(b1-4)GlcNAc(b1-4)[Fuc(a1-6)]GlcNAc
# In short: as §1
# [25] = molecular target: Gal(b1-4)GlcNAc(b1-2)Man(a1-3)[Gal(b1-4)GlcNAc(b1-2)Man(a1-6)][GlcNAc(b1-4)]Man(b1-4)GlcNAc(b1-4)[Fuc(a1-6)]GlcNAc
# In short: as §1
# [26] = molecular target: Gal(b1-4)GlcNAc(b1-2)Man(a1-3)[GlcNAc(b1-2)Man(a1-6)]Man(b1-4)GlcNAc(b1-4)GlcNAc
# In short: as §1
# [27] = molecular target: Gal(b1-4)GlcNAc(b1-2)Man(a1-3)[GlcNAc(b1-4)][Gal(b1-4)GlcNAc(b1-2)Man(a1-6)]Man(b1-4)GlcNAc(b1-4)GlcNAc
# In short: as §1
# [28] = molecular target: Gal(b1-4)GlcNAc(b1-2)Man(a1-3)[Man(a1-6)]Man(b1-4)GlcNAc(b1-4)GlcNAc
# In short: as §1
# [29] = molecular target: Gal(b1-4)GlcNAc(b1-2)Man(a1-6)Man(b1-4)GlcNAc(b1-4)GlcNAc
# In short: as §1
# [30] = molecular target: Gal(b1-4)GlcNAc(b1-2)Man(a1-6)[GlcNAc(b1-2)Man(a1-3)]Man(b1-4)GlcNAc(b1-4)GlcNAc
# In short: as §1
# [31] = molecular target: Gal(b1-4)GlcNAc(b1-2)Man(a1-6)[Man(a1-3)]Man(b1-4)GlcNAc(b1-4)GlcNAc
# In short: as §1
# [32] = molecular target: Gal(b1-4)GlcNAc(b1-2)[Gal(b1-4)GlcNAc(b1-4)]Man(a1-3)[Gal(b1-4)GlcNAc(b1-2)Man(a1-6)]Man(b1-4)GlcNAc(b1-4)GlcNAc
# In short: as §1
# [33] = molecular target: Gal(b1-4)GlcNAc(b1-2)[Gal(b1-4)GlcNAc(b1-4)]Man(a1-3)[Gal(b1-4)GlcNAc(b1-2)[Gal(b1-4)GlcNAc(b1-6)]Man(a1-6)]Man(b1-4)GlcNAc(b1-4)GlcNAc
# In short: as §1
# [34] = molecular target: Gal(b1-4)GlcNAc(b1-2)[Gal(b1-4)GlcNAc(b1-4)]Man(a1-3)[GlcNAc(b1-4)][Gal(b1-4)GlcNAc(b1-2)Man(a1-6)]Man(b1-4)GlcNAc(b1-4)GlcNAc
# In short: as §1
# [35] = molecular target: Gal(b1-4)GlcNAc(b1-2)[Gal(b1-4)GlcNAc(b1-4)]Man(a1-3)[GlcNAc(b1-4)][Gal(b1-4)GlcNAc(b1-2)[Gal(b1-4)GlcNAc(b1-6)]Man(a1-6)]Man(b1-4)GlcNAc(b1-4)GlcNAc
# In short: as §1
# [36] = molecular target: Gal(b1-4)GlcNAc(b1-2)[Gal(b1-4)GlcNAc(b1-6)]Man(a1-6)[Gal(b1-4)GlcNAc(b1-2)Man(a1-3)]Man(b1-4)GlcNAc(b1-4)GlcNAc
# In short: as §1
# [37] = molecular target: Gal(b1-4)GlcNAc(b1-2)[Gal(b1-4)GlcNAc(b1-6)]Man(a1-6)[Gal(b1-4)GlcNAc(b1-2)Man(a1-3)]Man(b1-4)GlcNAc(b1-4)[Fuc(a1-6)]GlcNAc
# In short: as §1
binder,measurement,setting,value
B1,glycan array binding signal (z-score),[1],0.239
same,glycan array binding signal (z-score),[2],-0.208
same,glycan array binding signal (z-score),[3],-0.195
same,glycan array binding signal (z-score),[4],-0.21
same,glycan array binding signal (z-score),[5],0.351
same,glycan array binding signal (z-score),[6],-0.126
same,glycan array binding signal (z-score),[7],-0.485
same,glycan array binding signal (z-score),[8],0.282
same,glycan array binding signal (z-score),[9],-0.372
same,glycan array binding signal (z-score),[10],-0.235
same,glycan array binding signal (z-score),[11],-0.26
same,glycan array binding signal (z-score),[12],-0.373
same,glycan array binding signal (z-score),[13],-0.336
same,glycan array binding signal (z-score),[14],-0.387
same,glycan array binding signal (z-score),[15],-0.406
same,glycan array binding signal (z-score),[16],-0.374
same,glycan array binding signal (z-score),[17],0.533
same,glycan array binding signal (z-score),[18],0.233
same,glycan array binding signal (z-score),[19],-0.071
same,glycan array binding signal (z-score),[20],-0.043
same,glycan array binding signal (z-score),[21],-0.289
same,glycan array binding signal (z-score),[22],6.16
same,glycan array binding signal (z-score),[23],2.04
same,glycan array binding signal (z-score),[24],-0.181
same,glycan array binding signal (z-score),[25],-0.247
same,glycan array binding signal (z-score),[26],0.099
same,glycan array binding signal (z-score),[27],-0.007
same,glycan array binding signal (z-score),[28],1.69
same,glycan array binding signal (z-score),[29],0.732
same,glycan array binding signal (z-score),[30],-0.268
same,glycan array binding signal (z-score),[31],-0.165
same,glycan array binding signal (z-score),[32],-0.406
same,glycan array binding signal (z-score),[33],1.28
same,glycan array binding signal (z-score),[34],-0.296
same,glycan array binding signal (z-score),[35],-0.214
same,glycan array binding signal (z-score),[36],-0.111
same,glycan array binding signal (z-score),[37],-0.108
